Reference: PMC5019376
No constants are given. Whether binding was seen depends on the method and setting. Binding seen in cells or lysates may run through a third protein. Sequences can lack the tags named with a protein.

T1: TIR1 (wild type, BiFC fusion) (Arabidopsis) (UniProt Q570C0)
T1 sequence: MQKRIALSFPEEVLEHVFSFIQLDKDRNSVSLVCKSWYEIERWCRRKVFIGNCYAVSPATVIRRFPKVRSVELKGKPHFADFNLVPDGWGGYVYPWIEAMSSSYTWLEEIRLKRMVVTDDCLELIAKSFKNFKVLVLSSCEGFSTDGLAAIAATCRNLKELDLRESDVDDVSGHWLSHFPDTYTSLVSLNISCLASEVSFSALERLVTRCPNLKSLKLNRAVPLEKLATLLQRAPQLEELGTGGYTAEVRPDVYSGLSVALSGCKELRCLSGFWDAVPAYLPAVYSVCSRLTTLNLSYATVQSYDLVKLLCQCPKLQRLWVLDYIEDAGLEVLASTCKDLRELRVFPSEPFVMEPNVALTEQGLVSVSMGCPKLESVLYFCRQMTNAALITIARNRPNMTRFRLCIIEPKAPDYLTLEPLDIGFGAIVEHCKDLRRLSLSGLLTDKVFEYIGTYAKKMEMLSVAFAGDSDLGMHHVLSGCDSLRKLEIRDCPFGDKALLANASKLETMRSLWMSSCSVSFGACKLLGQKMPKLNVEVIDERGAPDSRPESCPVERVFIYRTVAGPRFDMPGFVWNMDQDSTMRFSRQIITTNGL


Target: T1, TIR1 (wild type, BiFC fusion) (Arabidopsis)
Test: split reporter; BiFC after transient expression in Nicotiana benthamiana leaves, confocal imaging; some TIR1-TIR1 samples with co-expressed Myc:ASK1 and 100 uM CHX

| Binder | binding |
| --- | --- |
| V117A TIR1 (BiFC fusion) (protein, UniProt Q570C0 1-594) MQKRIALSFPEEVLEHVFSFIQLDKDRNSVSLVCKSWYEIERWCRRKVFIGNCYAVSPATVIRRFPKVRSVELKGKPHFADFNLVPDGWGGYVYPWIEAMSSSYTWLEEIRLKRMVATDDCLELIAKSFKNFKVLVLSSCEGFSTDGLAAIAATCRNLKELDLRESDVDDVSGHWLSHFPDTYTSLVSLNISCLASEVSFSALERLVTRCPNLKSLKLNRAVPLEKLATLLQRAPQLEELGTGGYTAEVRPDVYSGLSVALSGCKELRCLSGFWDAVPAYLPAVYSVCSRLTTLNLSYATVQSYDLVKLLCQCPKLQRLWVLDYIEDAGLEVLASTCKDLRELRVFPSEPFVMEPNVALTEQGLVSVSMGCPKLESVLYFCRQMTNAALITIARNRPNMTRFRLCIIEPKAPDYLTLEPLDIGFGAIVEHCKDLRRLSLSGLLTDKVFEYIGTYAKKMEMLSVAFAGDSDLGMHHVLSGCDSLRKLEIRDCPFGDKALLANASKLETMRSLWMSSCSVSFGACKLLGQKMPKLNVEVIDERGAPDSRPESCPVERVFIYRTVAGPRFDMPGFVWNMDQDSTMRFSRQIITTNGL | no binding |
| V33E-TIR1 (BiFC fusion) (protein, UniProt Q570C0 1-594) MQKRIALSFPEEVLEHVFSFIQLDKDRNSVSLECKSWYEIERWCRRKVFIGNCYAVSPATVIRRFPKVRSVELKGKPHFADFNLVPDGWGGYVYPWIEAMSSSYTWLEEIRLKRMVVTDDCLELIAKSFKNFKVLVLSSCEGFSTDGLAAIAATCRNLKELDLRESDVDDVSGHWLSHFPDTYTSLVSLNISCLASEVSFSALERLVTRCPNLKSLKLNRAVPLEKLATLLQRAPQLEELGTGGYTAEVRPDVYSGLSVALSGCKELRCLSGFWDAVPAYLPAVYSVCSRLTTLNLSYATVQSYDLVKLLCQCPKLQRLWVLDYIEDAGLEVLASTCKDLRELRVFPSEPFVMEPNVALTEQGLVSVSMGCPKLESVLYFCRQMTNAALITIARNRPNMTRFRLCIIEPKAPDYLTLEPLDIGFGAIVEHCKDLRRLSLSGLLTDKVFEYIGTYAKKMEMLSVAFAGDSDLGMHHVLSGCDSLRKLEIRDCPFGDKALLANASKLETMRSLWMSSCSVSFGACKLLGQKMPKLNVEVIDERGAPDSRPESCPVERVFIYRTVAGPRFDMPGFVWNMDQDSTMRFSRQIITTNGL | no binding |

The remaining lines, values ahead:

| binding | Binder |
| --- | --- |
| no binding | C140S-TIR1 (BiFC fusion) (protein, UniProt Q570C0 1-594) MQKRIALSFPEEVLEHVFSFIQLDKDRNSVSLVCKSWYEIERWCRRKVFIGNCYAVSPATVIRRFPKVRSVELKGKPHFADFNLVPDGWGGYVYPWIEAMSSSYTWLEEIRLKRMVVTDDCLELIAKSFKNFKVLVLSSSEGFSTDGLAAIAATCRNLKELDLRESDVDDVSGHWLSHFPDTYTSLVSLNISCLASEVSFSALERLVTRCPNLKSLKLNRAVPLEKLATLLQRAPQLEELGTGGYTAEVRPDVYSGLSVALSGCKELRCLSGFWDAVPAYLPAVYSVCSRLTTLNLSYATVQSYDLVKLLCQCPKLQRLWVLDYIEDAGLEVLASTCKDLRELRVFPSEPFVMEPNVALTEQGLVSVSMGCPKLESVLYFCRQMTNAALITIARNRPNMTRFRLCIIEPKAPDYLTLEPLDIGFGAIVEHCKDLRRLSLSGLLTDKVFEYIGTYAKKMEMLSVAFAGDSDLGMHHVLSGCDSLRKLEIRDCPFGDKALLANASKLETMRSLWMSSCSVSFGACKLLGQKMPKLNVEVIDERGAPDSRPESCPVERVFIYRTVAGPRFDMPGFVWNMDQDSTMRFSRQIITTNGL |
| no binding | F143A-TIR1 (BiFC fusion) (protein, UniProt Q570C0 1-594) MQKRIALSFPEEVLEHVFSFIQLDKDRNSVSLVCKSWYEIERWCRRKVFIGNCYAVSPATVIRRFPKVRSVELKGKPHFADFNLVPDGWGGYVYPWIEAMSSSYTWLEEIRLKRMVVTDDCLELIAKSFKNFKVLVLSSCEGASTDGLAAIAATCRNLKELDLRESDVDDVSGHWLSHFPDTYTSLVSLNISCLASEVSFSALERLVTRCPNLKSLKLNRAVPLEKLATLLQRAPQLEELGTGGYTAEVRPDVYSGLSVALSGCKELRCLSGFWDAVPAYLPAVYSVCSRLTTLNLSYATVQSYDLVKLLCQCPKLQRLWVLDYIEDAGLEVLASTCKDLRELRVFPSEPFVMEPNVALTEQGLVSVSMGCPKLESVLYFCRQMTNAALITIARNRPNMTRFRLCIIEPKAPDYLTLEPLDIGFGAIVEHCKDLRRLSLSGLLTDKVFEYIGTYAKKMEMLSVAFAGDSDLGMHHVLSGCDSLRKLEIRDCPFGDKALLANASKLETMRSLWMSSCSVSFGACKLLGQKMPKLNVEVIDERGAPDSRPESCPVERVFIYRTVAGPRFDMPGFVWNMDQDSTMRFSRQIITTNGL |
